# PubChem BioAssay AID624417 (National Center for Advancing Translational Sciences (NCATS), 2012)
# The whole screen tested about 410,000 compounds, of which about 6,400 (1.6%) were called active. Inconclusive results, whose numbers are uncertain, are shown with a selection of clear calls. Calls come from the whole dose curve; as a rule, active = well fitted inhibition curve with a large enough effect; inconclusive = small, poorly fitted or top-dose-only effect; inactive = no such curve, though single readings can be large or run the other way. No potency is given beside an inconclusive call; the fits are too rough.
# Target: Glucagon-like peptide 1 receptor (Homo sapiens) (UniProt P43220)
# UniProt P43220, sequence (P43220 whole entry, looked up): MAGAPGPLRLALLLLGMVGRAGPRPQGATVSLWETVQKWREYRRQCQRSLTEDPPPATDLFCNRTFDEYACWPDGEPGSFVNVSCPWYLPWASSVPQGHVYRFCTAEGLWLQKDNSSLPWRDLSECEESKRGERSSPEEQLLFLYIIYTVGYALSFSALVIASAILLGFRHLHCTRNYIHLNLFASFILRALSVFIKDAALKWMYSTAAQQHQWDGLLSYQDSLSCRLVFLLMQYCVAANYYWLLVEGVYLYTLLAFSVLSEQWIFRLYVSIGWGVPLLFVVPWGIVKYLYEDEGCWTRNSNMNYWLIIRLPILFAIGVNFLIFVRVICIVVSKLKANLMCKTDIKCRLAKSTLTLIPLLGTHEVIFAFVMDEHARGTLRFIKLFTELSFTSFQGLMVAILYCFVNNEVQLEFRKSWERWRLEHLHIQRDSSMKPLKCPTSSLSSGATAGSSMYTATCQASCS
# Experiment: qHTS of GLP-1 Receptor Inverse Agonists (Inhibition Mode); note: nearly all actives have a fitted effect of over 55% in size
# Details: HEK293 GLP-1R CRE-luciferase, luminescence, 24 h, GLP-1R form is constitutively active; activity change, negative = inhibition: at 38.3 µM (top of the series) unless noted
# Method in brief: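 Seeding at 200 cells/uL, 12 h culture, 24 hr compound treatment, then luciferase reagent and a luminescence read; cells are HEK293 stably expressing a constitutively active GLP-1R plus cAMP-responsive luciferase.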
# % is set by controls: 0 for no effect and ±100 for the full control effect; potency is the fitted concentration of half-maximal effect; tags give direction and shape of the fitted curve.
SMILES,Potency,"activity change, negative = inhibition"
CCCCCCSc1ccc([C@H]2N[C@@](CC(C)C)(C(=O)OC)[C@H]3C(=O)N(C)C(=O)[C@@H]23)cc1OC,"inconclusive [inhibitor, partial curve, poor fit]",
CCN(CC)S(=O)(=O)c1cc(C(=O)Nc2ccccc2[N+](=O)[O-])ccc1Cl,"inconclusive [inhibitor, single point]",
CCc1ccc(-c2cn(C3CCCCC3)c(=S)[nH]2)cc1,"inconclusive [inhibitor, partial curve, poor fit]",
O=c1c2cc(F)ccc2sn1-c1ccc(F)cc1,,inactive: -22.9%
Cc1ccc(S(=O)(=O)N2C[C@H]3C(=O)C[C@@H](c4ccc(Cl)cc4)N(S(=O)(=O)c4ccccc4C)[C@H]3C[C@H]2c2ccc(Cl)cc2)cc1,"inconclusive [inhibitor, single point]",
CCOC(=O)c1sc2nc(C)nc(NCc3ccc(F)cc3)c2c1C,active: 7.08 µM,
COc1ccc(N2CCN(Cc3csc(C)c3-c3ccc(C)cc3)CC2)cc1,"inconclusive [inhibitor, partial curve, poor fit]",
Cc1cc(F)ccc1S(=O)(=O)Nc1ccccc1C(=O)Nc1ncn[nH]1,"inconclusive [inhibitor, partial curve, poor fit]",
CCOC(=O)N1CCN(C(=O)C2CCCN(Cc3nc(-c4ccc(Cl)cc4)oc3C)C2)CC1 (stereo unspecified),"inconclusive [inhibitor, single point]",
Cc1ccc(NCc2nnc(SCCN3CCCCC3)n2CC2CCCO2)cc1Cl (stereo unspecified),"inconclusive [inhibitor, partial curve, poor fit]",
COc1ccccc1CC(=O)NNC(=O)c1cccs1,"inconclusive [inhibitor, single point]",
Cc1ccc(C)c(N2CCN(C(=O)c3cc4c(=O)n(Cc5ccccc5)ccc4nc3C)CC2)c1,"inconclusive [inhibitor, single point]",
CCOc1ccccc1CNC(=O)C1CCCN(c2ncnc3c2nc2n3CCCCC2)C1 (stereo unspecified),"inconclusive [inhibitor, single point]",
CCOc1ccc2nc(N(Cc3ccccc3)C(=O)CCNC(C)=O)sc2c1,"inconclusive [inhibitor, single point]",
CC1CCCC(C)N1C(=O)COC(=O)/C=C/c1ccc(Br)o1 (stereo unspecified),"inconclusive [inhibitor, single point]",
COc1cccc(CSc2nc3ccccc3cc2C=O)c1,"inconclusive [inhibitor, single point]",
